Laboratory results published in publication PMC4617706.
These are yes or no findings as the source states them, for the method shown. Some binding calls cover weakened binding; strength is not graded here.

The chains behind the UniProt entries cited, without tags or fusion partners. Where a name states a change or a piece, a line headed by the entry shows the natural chain unless it says otherwise.
UniProt Q9Y2I6: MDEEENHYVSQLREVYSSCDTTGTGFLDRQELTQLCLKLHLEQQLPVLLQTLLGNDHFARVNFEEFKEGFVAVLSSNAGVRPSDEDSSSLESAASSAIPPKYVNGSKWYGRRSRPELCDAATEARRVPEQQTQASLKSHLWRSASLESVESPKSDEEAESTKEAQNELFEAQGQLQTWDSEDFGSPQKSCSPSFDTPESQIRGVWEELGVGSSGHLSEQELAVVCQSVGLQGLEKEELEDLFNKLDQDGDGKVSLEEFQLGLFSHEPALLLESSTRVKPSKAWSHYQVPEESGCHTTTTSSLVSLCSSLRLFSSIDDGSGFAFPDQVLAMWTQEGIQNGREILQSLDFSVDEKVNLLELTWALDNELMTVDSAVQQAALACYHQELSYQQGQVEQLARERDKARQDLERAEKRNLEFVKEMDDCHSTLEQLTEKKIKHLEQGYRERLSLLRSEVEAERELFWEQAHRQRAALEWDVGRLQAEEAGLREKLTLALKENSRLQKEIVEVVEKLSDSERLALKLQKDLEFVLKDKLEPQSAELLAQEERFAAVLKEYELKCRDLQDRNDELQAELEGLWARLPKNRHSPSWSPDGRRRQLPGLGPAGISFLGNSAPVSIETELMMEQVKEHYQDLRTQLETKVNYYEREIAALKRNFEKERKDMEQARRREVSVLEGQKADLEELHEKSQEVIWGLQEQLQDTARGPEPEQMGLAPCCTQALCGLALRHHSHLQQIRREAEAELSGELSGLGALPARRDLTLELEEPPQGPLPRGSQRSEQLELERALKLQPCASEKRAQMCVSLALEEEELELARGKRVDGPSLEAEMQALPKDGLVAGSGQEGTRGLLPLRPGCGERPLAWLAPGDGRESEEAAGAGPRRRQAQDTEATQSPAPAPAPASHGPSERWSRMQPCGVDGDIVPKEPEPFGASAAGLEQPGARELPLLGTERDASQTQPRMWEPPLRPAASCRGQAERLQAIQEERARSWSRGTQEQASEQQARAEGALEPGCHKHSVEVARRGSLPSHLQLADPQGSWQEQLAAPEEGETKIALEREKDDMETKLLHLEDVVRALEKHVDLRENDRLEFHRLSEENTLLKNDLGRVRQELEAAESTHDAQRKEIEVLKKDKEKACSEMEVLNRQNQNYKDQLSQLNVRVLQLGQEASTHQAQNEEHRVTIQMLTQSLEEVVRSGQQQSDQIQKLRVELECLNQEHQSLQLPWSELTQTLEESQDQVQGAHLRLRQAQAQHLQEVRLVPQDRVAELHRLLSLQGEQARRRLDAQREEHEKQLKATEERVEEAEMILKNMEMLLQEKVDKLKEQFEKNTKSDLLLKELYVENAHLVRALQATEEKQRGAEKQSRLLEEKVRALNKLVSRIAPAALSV

Assays:
[1] = target: NINL^isoA (binary yeast two-hybrid construct) (human) (UniProt Q9Y2I6); assay: two-hybrid; binary co-transformation in yeast, GAL4-based; growth on SD/-Trp/-Leu/-His and SD/-Trp/-Leu/-His/-Ade, beta-galactosidase filter lift assay
[2] = target: NINL^isoB (binary yeast two-hybrid construct) (human) (UniProt Q9Y2I6); assay: as above

B1: DZANK1 ZNF_RBZ domains (244-317aa), two-hybrid deletion construct (domain or fragment, UniProt Q9NVP4 244-317)
chain: PPEGAQMGLCAECRSLVPMNTPICVVCEAPLALQLQPQASLHLKEKVICRACGTGNPAHLRYCVTCEGALPSSQ
- binding [1]: binds
- binding [2]: binds
